# In PubChem BioAssay AID1347165 (National Center for Advancing Translational Sciences (NCATS), 2019):
# Screen size: about 220,000 compounds; about 5,700 (2.6%) were called active. The shares of active, inactive and inconclusive entries below differ from those in the screen. The call rests on the fitted dose curve; in most records, active means well fitted inhibition curve with a large enough effect; inconclusive means small, poorly fitted or top-dose-only effect; inactive means no such curve, though single readings can be large or run the other way. Potencies beside an inconclusive call are fits to weak or partial responses and may not hold up.
# Biological target: Lysine-specific demethylase 5B (Homo sapiens) (UniProt Q9UGL1)
# UniProt Q9UGL1, sequence (Q9UGL1 whole entry, looked up): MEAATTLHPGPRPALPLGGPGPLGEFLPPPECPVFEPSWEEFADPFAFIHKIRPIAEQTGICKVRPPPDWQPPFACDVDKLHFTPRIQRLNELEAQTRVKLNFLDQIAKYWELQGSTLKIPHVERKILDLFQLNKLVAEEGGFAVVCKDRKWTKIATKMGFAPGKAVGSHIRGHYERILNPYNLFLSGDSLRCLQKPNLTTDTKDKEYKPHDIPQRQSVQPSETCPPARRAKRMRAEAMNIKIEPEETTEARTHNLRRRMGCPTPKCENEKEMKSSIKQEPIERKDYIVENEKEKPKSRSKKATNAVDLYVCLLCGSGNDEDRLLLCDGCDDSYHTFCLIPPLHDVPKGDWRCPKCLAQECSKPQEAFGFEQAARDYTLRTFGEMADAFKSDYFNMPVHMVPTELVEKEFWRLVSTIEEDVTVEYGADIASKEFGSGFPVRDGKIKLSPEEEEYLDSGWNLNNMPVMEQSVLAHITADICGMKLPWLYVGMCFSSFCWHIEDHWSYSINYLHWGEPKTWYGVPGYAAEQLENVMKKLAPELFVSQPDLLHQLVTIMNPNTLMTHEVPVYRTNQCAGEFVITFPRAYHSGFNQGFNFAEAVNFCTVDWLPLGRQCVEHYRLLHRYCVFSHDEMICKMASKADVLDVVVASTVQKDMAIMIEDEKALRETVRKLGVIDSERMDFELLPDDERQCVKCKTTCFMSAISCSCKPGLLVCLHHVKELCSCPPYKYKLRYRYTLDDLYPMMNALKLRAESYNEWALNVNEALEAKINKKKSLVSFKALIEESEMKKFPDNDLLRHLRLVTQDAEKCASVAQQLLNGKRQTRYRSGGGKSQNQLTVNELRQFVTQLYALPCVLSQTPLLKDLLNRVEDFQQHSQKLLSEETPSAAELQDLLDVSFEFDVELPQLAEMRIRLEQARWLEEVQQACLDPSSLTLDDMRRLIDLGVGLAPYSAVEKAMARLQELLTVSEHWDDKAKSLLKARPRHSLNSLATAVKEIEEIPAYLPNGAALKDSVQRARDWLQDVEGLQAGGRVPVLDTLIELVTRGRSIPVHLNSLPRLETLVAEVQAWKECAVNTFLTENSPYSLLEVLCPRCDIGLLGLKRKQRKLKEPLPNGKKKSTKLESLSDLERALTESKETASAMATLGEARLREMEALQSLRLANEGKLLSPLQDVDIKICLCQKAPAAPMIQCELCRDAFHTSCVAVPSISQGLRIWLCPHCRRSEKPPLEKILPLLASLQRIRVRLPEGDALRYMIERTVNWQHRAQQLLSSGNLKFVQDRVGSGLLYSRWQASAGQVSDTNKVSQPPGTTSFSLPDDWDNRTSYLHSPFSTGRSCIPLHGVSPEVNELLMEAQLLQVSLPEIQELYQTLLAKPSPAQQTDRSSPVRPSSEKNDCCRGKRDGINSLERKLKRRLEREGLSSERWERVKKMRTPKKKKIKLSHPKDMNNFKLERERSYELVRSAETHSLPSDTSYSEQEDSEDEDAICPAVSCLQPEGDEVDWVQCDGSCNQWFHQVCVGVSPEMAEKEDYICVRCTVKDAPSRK
# Experiment: Primary screen for KDM5B Histone Demethylases FDH-coupled qHTS; further: nearly all actives have a fitted effect of over 70% in size; on activity change, negative = inhibition: 0% is about no effect
# Details: FDH-coupled NADH fluorescence (FDH is formaldehyde dehydrogenase); activity change, negative = inhibition: at 57.7 µM (top of the series) unless noted
# How it was run: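 KDM5BΔAP (200 nM final) in 50 mM HEPES pH 7.5, 0.01% Tween-20 was preincubated 10 min at RT with compound over a concentration range. Substrate mix (H3K4me3 12.5 µM, α-KG 25 µM, Fe²⁺, ascorbate, NAD⁺, FDH) was added, and NADH fluorescence change over 30 min gave dose-response curves.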
# Potency means the concentration at half of the fitted maximal effect; tags describe the fitted curve by direction and shape.
Structure (SMILES),Potency,"activity change, negative = inhibition"
Cn1c(=O)c2c(nc(NC3CCCCC3)n2Cc2cccc(Br)c2)n(C)c1=O,"inconclusive: 25.1 µM [inhibitor, single point]",
COc1ccc(-n2c(CCC(=O)O)ccc2-c2ccccc2)c(OC)c1,"inconclusive: 15.8 µM [inhibitor, partial curve, poor fit]",
COc1ccc(C(=O)N/N=C/c2ccc(N(C)c3ccccc3)cc2)cc1,"inconclusive: 22.4 µM [inhibitor, partial curve, poor fit]",
COCCC1(NS(C)(=O)=O)CCN(C(=O)c2ccc(C)nc2)CC1,,inactive: 9.05%
CC(=O)N1CCCc2cc(S(=O)(=O)N(Cc3ccccc3)C(C)C)ccc21,,inactive: 4.4%
Cc1cccc(CC(=O)N2CCN(c3cc(-c4cccs4)[nH]n3)CC2)c1,"inconclusive: 28.2 µM [inhibitor, partial curve]",
O=c1n(-c2cccc(Cl)c2)nc2n1CCN([S+](=O)([O-])c1cccs1)C2,"inconclusive: 50.1 µM [inhibitor, partial curve, poor fit]",
COc1ccc(-c2ccc3nc(-c4ccc(F)c(F)c4)oc3c2)c(OC)c1OC,,inactive: -6360%
CC1CCCCN1S(=O)(=O)c1ccc(C(=O)Nc2ccc3ccccc3n2)cc1 (configuration not stated),"inconclusive: 25.1 µM [inhibitor, single point]",
O=C1N(CC2CCC2)CCCC12CCN(Cc1ccc(-c3ccn[nH]3)s1)C2 (configuration not stated),"inconclusive: 31.6 µM [inhibitor, single point]",
COc1cc(F)c(CN2CCN(C)C3(CCNC(=O)CC3)C2)c(F)c1 (configuration not stated),"inconclusive: 11.2 µM [inhibitor, partial curve, poor fit]",
COc1ccc(-c2cc(C[C@H]3CNCC[C@H]3CC(=O)N3CCN(c4ccccc4OC)CC3)no2)cc1,"inconclusive: 15.8 µM [inhibitor, partial curve, poor fit]",
COC(=O)Cc1c(C)c2ccc(OCC(=O)OCc3ccccc3)c(C)c2oc1=O,"inconclusive: 10 µM [inhibitor, partial curve, poor fit]",
CCCCc1ccc(NC(=O)CSc2nnc3[nH]c(=O)cc(C)n23)cc1,"inconclusive: 25.1 µM [inhibitor, single point]",
O=C(NC1CCCCC1)N1CCCCCC1CN1CCCC1 (configuration not stated),"inconclusive: 22.4 µM [inhibitor, partial curve]",
COc1ccc(NC(=O)[C@@H]2C[C@H](c3ccc(F)cc3)N(Cc3csc(C)n3)C2)cn1,"inconclusive: 35.5 µM [inhibitor, partial curve]",
COc1ccc(-c2cc3c(=O)n(CCNC(=O)Cc4cccs4)ccn3n2)cc1,"inconclusive: 28.2 µM [inhibitor, single point]",
CCN(CC)CCNC(=O)c1cc2c(=O)oc3ccc(C)cc3c2s1,"inconclusive: 22.4 µM [inhibitor, partial curve, poor fit]",
COc1cccc(/C=C(/C(=O)c2ccccc2)c2nc3ccccc3s2)c1,"inconclusive: 39.8 µM [inhibitor, single point]",
Cc1cc2occ(CC(=O)Nc3cccc(S(=O)(=O)N4CCOCC4)c3)c2cc1C(C)C,,inactive: -24.7%
Cc1ccc(C(=O)C2=C(O)C(=O)N(CC3CCCO3)C2c2ccccc2F)o1 (configuration not stated),"inconclusive: 10 µM [inhibitor, partial curve, poor fit]",
COC(=O)Cn1c(=O)c2c(nc(-n3nc(C)c(C)c3C)n2C)n(C)c1=O,,inactive: 23%
C=C(C)CN1CCN(c2nc3c(c(=O)[nH]c(=O)n3C)n2Cc2cc(C)ccc2C)CC1,,inactive: 17.6%

Structure (SMILES),Potency,"activity change, negative = inhibition"
CC(=O)NC1(C)CCN(Cc2ccc(-c3ccccc3OCc3ccccc3)cc2)C1 (configuration not stated),"inconclusive: 39.8 µM [inhibitor, partial curve, poor fit]",
Cc1ccc(Nc2nc(NCc3ccco3)nc3c2cnn3-c2ccccc2)cc1C,"inconclusive: 22.4 µM [inhibitor, partial curve, poor fit]",
Cc1ccc(C)c(CSc2cn(CCNC(=O)c3ccccc3F)c3ccccc23)c1,"inconclusive: 31.6 µM [inhibitor, single point]",
COc1ccc(Cn2cc(-c3ccc(F)c(C(N)=O)c3)cn2)cc1,,inactive: -20%
CC(=O)C1=C(C)OC2(O)c3ccccc3C(=O)C12O (configuration not stated),"inconclusive: 31.6 µM [inhibitor, partial curve, poor fit]",
CCC(=O)NC[C@H]1Cn2cc(-c3ccccc3)nc2CO1,"inconclusive: 35.5 µM [inhibitor, single point]",
CN1CC(=O)N(C2CCCNCC2)Cc2c(NCCCO)ncnc21 (configuration not stated),"inconclusive: 63.1 µM [inhibitor, partial curve, poor fit]",
CCOc1cc(-c2noc(-c3ncn4c3COC(c3ccc(OC)cc3)C4)n2)ccc1OC (configuration not stated),"inconclusive: 39.8 µM [inhibitor, single point]",
O=[S+]([O-])(c1ccncc1)c1nnn2c1nc(NC1CCCC1)c1ccccc12,,inactive: 2.46% [at 115 µM]
COc1ccc(C2CC(=O)N3CN(Cc4ccccc4)CSC3=C2C#N)c(OC)c1 (configuration not stated),"inconclusive: 15.8 µM [inhibitor, partial curve, poor fit]",
CCn1ccnc1CN(C)C(=O)c1cc(-c2cnc(C)nc2)nc2cc(F)ccc12,,inactive: -11.9%
COC(=O)c1ccc(NC(=O)COc2ccc3c(C)cc(=O)oc3c2)cc1,,inactive: -5.61%
Cc1cc(=O)[nH]c(NCCNc2nccc(-c3cccnc3)n2)n1,active: 31.6 µM,
CC(C)C(=O)Nc1ccc(C2(C(=O)N3CCN(c4ccccn4)CC3)CCCCC2)cc1,active: 22.4 µM,
COc1ccccc1CNC(=O)c1cc2ccc3ccc(C)[nH]c3c2n1,"inconclusive: 35.5 µM [inhibitor, single point]",
CCC1CCCCN1c1nc(-c2ccncc2)nc2ccccc12 (configuration not stated),"inconclusive: 39.8 µM [inhibitor, single point]",
CCN1CCc2c(sc(-n3cccc3)c2C(C)NC(=O)Nc2ccccc2C)C1 (configuration not stated),"inconclusive: 28.2 µM [inhibitor, partial curve, poor fit]",
Cc1cccc(CC(=O)Nc2cccc(-c3nc4cccnc4s3)c2)c1,"inconclusive: 15.8 µM [inhibitor, partial curve, poor fit]",
N#Cc1cccc(CN2CC[C@@H]3OCC(=O)N(Cc4c[nH]c5ccccc45)[C@H]3CC2)c1,"inconclusive: 44.7 µM [inhibitor, partial curve, poor fit]",
Cc1ccnc(N2CCN(C3CCC4(CCNCC4)CC3)CC2)c1,"inconclusive: 4.47 µM [inhibitor, partial curve, poor fit]",
Cc1nn(CCC#N)c(C)c1[C@@H]1C=C[C@@H](NCc2ccc(C(C)C)cc2)C1,"inconclusive: 35.5 µM [inhibitor, single point]",
Brc1ccc(-c2cnc(-c3ccccc3)o2)cc1,"inconclusive: 22.4 µM [inhibitor, partial curve, poor fit]",
O=C(NC1CCCCCC1)C(Cc1ccccc1)NS(=O)(=O)c1ccc(Br)s1 (configuration not stated),,inactive: -3.42%

Structure (SMILES),Potency,"activity change, negative = inhibition"
O=C1OCC2=C1C(c1cccs1)NC(=O)N2CC(=O)N1CCCCC1 (configuration not stated),"inconclusive: 17.8 µM [inhibitor, partial curve, poor fit]",
Cc1nc2cc(NC(=O)COc3ccc(Br)cc3)ccc2o1,,inactive: 15.3%
Cc1ccc([N+](=O)[O-])cc1S(=O)(=O)NC(c1ccccc1)c1cccs1 (configuration not stated),,inactive: -9.65%
COC(=O)c1cc2sc(C)cc2n1CC(=O)Nc1ccc(C)cc1Cl,"inconclusive: 35.5 µM [inhibitor, single point]",
O=C(Nc1oc2ccc(Cl)cc2c(=O)c1-c1ccccc1)c1cccs1,,inactive: -0.0726%
CCCCCCn1c(SCC(N)=O)nc2c1c(=O)[nH]c(=O)n2C,,inactive: 17.8%
Cc1ccc(C)c(Cn2ccn3nc(-c4ccccc4)c(CO)c3c2=O)c1,"inconclusive: 31.6 µM [inhibitor, single point]",
COCCOCC(=O)N1CCCCCCNC(=O)[C@@H]2C[C@@H](c3nc(Cc4ccccc4)no3)C[C@@H]21,,inactive: -20.5%
CC(C)OCCCNC(=O)c1nn(C)c2c1CSc1ccccc1-2,,inconclusive: -30.1% [inhibitor]
O=c1c2c(CO)c(-c3ccccc3)nn2ccn1Cc1cccc(C(F)(F)F)c1,"inconclusive: 39.8 µM [inhibitor, partial curve, poor fit]",
Cc1cccc(N2C(=O)CSC23CCN(C(=O)C2CC2)CC3)c1,active: 25.1 µM,
CC1=C(C(=O)N(C)C)C(c2ccc(Cl)cc2)N2C(CC(=O)N3CCOCC3)=CSC2=N1 (configuration not stated),"inconclusive: 25.1 µM [inhibitor, single point]",
COc1ccccc1NC(=O)C1=CCN(Cc2ccccc2F)CC1,,inactive: -15.8%
Cc1cc(C)nc(SCc2ccc(-c3nc(C4CCOC4)no3)o2)n1 (configuration not stated),,inactive: -8.24%
N#Cc1ccc(Cn2c(CN3CCOCC3)nc3scc(-c4cccs4)c3c2=O)cc1,,inactive: -13.7%
CCOC(=O)c1ccc(NC(=O)c2c(NCc3cc(OC)ccc3OC)sc3c2CCC3)cc1,"inconclusive: 31.6 µM [inhibitor, partial curve, poor fit]",
CCN1C(=O)C2CC3(CCN(C(=O)Cn4c(=O)oc5ccccc54)CC3)CN2C1=O (configuration not stated),,inactive: -9.1%
CC1=C(OS(=O)(=O)c2ccc(C)cc2)C(C)(C)C(c2ccccc2)OC1=O (configuration not stated),,inactive: -3.75%
COCCN1C(=O)c2ccccc2C(C(=O)Nc2cc(OC)ccc2OC)C12CCCC2 (configuration not stated),"inconclusive: 22.4 µM [inhibitor, partial curve]",
CCc1cnc2c(c1SCCC(C)C)c(=O)n(C)c(=O)n2C,,inactive: -16%
CC(=O)Oc1c2ccccc2c(OC(C)=O)c2ccccc12,"inconclusive: 5.01 µM [inhibitor, full curve, poor fit]",
